Among the data in a collection of fitness landscapes (doi:10.1126/science.1257360) are enrichment ratio values, retold here.

B1: PhoQ; a variant is named by its letters at X, in order, P23837 (parent)
chain: MKKLLRLFFPLSLRVRFLLATAAVVLVLSLAYGMVALIGYSVSFDKTTFRLLRGESNLFYTLAKWENNKLHVELPENIDKQSPTMTLIYDENGQLLWAQRDVPWLMKMIQPDWLKSNGFHEIEADVNDTSLLLSGDHSIQQQLQEVREDDDDAEMTHSVAVNVYPATSRMPKLTIVVVDTIPVELKSSYMVWSWFIYVLSANLLLVIPLLWVAAWWSLRPIEALAKEVRELEEHNRELLNPATTRELTSLVRNLNRLLKSERERYDKYRTTLTDLTHSLKTPLXXLQXXLRSLRSEKMSVSDAEPVMLEQISRISQQIGYYLHRASMRGGTLLSRELHPVAPLLDNLTSALNKVYQRKGVNISLDISPEISFVGEQNDFVEVMGNVLDNACKYCLEFVEISARQTDEHLYIVVEDDGPGIPLSKREVIFDRGQRVDTLRPGQGVGLAVAREITEQYEGKIVAGESMLGGARMEVIFGRQHSAPKDE

The other results are listed elsewhere or left out. A value given as a limit tells only on which side of the number the result lay.

The assay covers variants of B1. The assay is described as follows: enrichment ratio after two sorts for PhoP signalling (ratio (wild type AVST 3.29)); higher = more functional. The following applies: with PhoP (E. coli).
As to SQAL, the enrichment ratio was determined as 7.54.

Turning to LERA, the enrichment ratio was at most 0.25.

With YCYI, the enrichment ratio is at most 0.25.

With SLDC, the enrichment ratio is at most 0.25.

With PIFG, the enrichment ratio was at most 0.25.

As to YMAT, the enrichment ratio was at most 0.25.

Turning to HTAW, the enrichment ratio is at most 0.25.

In the case of MGHI, the enrichment ratio worked out at 19.7.

Regarding VNRN, the enrichment ratio was at most 0.25.

Consider SANI, for which the enrichment ratio was at most 0.25.

With RYCR, the enrichment ratio was at most 0.25.

SQKC: the enrichment ratio worked out at 0.303.

As for VDPC, the enrichment ratio was at most 0.25.

On to FYMM, for which the enrichment ratio is at most 0.25.

In the case of FRHV, the enrichment ratio is at most 0.25.

On to SHFI, for which the enrichment ratio was at most 0.25.

With IDRI, the enrichment ratio was at most 0.25.

Take NGVQ: the enrichment ratio was at most 0.25.

As for VIHI, the enrichment ratio is at most 0.25.

As to LKLH, the enrichment ratio is at most 0.25.

Consider PMGY, for which the enrichment ratio is at most 0.25.

On to QNQD, for which the enrichment ratio is at most 0.25.

Take QTWQ: the enrichment ratio is at most 0.25.

Regarding LMSV, the enrichment ratio is at most 0.25.

Consider YLLH, for which the enrichment ratio is at most 0.25.

For CICK, the enrichment ratio is at most 0.25.

Consider DGDW, for which the enrichment ratio is at most 0.25.

With YCPE, the enrichment ratio is at most 0.25.

Regarding WAVA, the enrichment ratio is at most 0.25.

With KNVQ, the enrichment ratio was at most 0.25.

For the variant NHGR, the enrichment ratio was at most 0.25.

With YGKY, the enrichment ratio was at most 0.25.

Take YMEF: the enrichment ratio is at most 0.25.

As for TMIM, the enrichment ratio was at most 0.25.

As to WKKC, the enrichment ratio is at most 0.25.

As for SMFE, the enrichment ratio was at most 0.25.

VQFA: the enrichment ratio was at most 0.25.

As to KQFR, the enrichment ratio was at most 0.25.

Consider MIWW, for which the enrichment ratio is at most 0.25.

Take WMIP: the enrichment ratio was at most 0.25.

In the case of PVMG, the enrichment ratio is at most 0.25.

Turning to KGMP, the enrichment ratio was at most 0.25.

In the case of QICE, the enrichment ratio was at most 0.25.

For YHDT, the enrichment ratio is at most 0.25.

On to ASQI, for which the enrichment ratio worked out at 0.709.

For the variant LFPW, the enrichment ratio was at most 0.25.

Consider QFKC, for which the enrichment ratio is at most 0.25.

Take QAGW: the enrichment ratio is at most 0.25.

ALYC: the enrichment ratio came out at 0.281.

Consider AHIW, for which the enrichment ratio is at most 0.25.

In the case of QFAS, the enrichment ratio is at most 0.25.

Take INSC: the enrichment ratio was at most 0.25.

Take YGRT: the enrichment ratio is at most 0.25.

Take EMPS: the enrichment ratio is at most 0.25.

Turning to LRMI, the enrichment ratio was at most 0.25.

FMKR: the enrichment ratio is at most 0.25.

On to FTAY, for which the enrichment ratio is at most 0.25.

For the variant GGTR, the enrichment ratio is at most 0.25.

For QNCM, the enrichment ratio is at most 0.25.

For the variant MGMW, the enrichment ratio is at most 0.25.

As for ICAC, the enrichment ratio is at most 0.25.

On to CFLR, for which the enrichment ratio is at most 0.25.

Take DVID: the enrichment ratio was at most 0.25.

In the case of VYAT, the enrichment ratio is at most 0.25.

Take IHMP: the enrichment ratio is at most 0.25.

Consider HRYE, for which the enrichment ratio is at most 0.25.

In the case of WKYC, the enrichment ratio is at most 0.25.

For the variant DYML, the enrichment ratio is at most 0.25.

Turning to RPVF, the enrichment ratio was at most 0.25.

With FRDS, the enrichment ratio was at most 0.25.

On to NEMA, for which the enrichment ratio is at most 0.25.

For FRKC, the enrichment ratio was at most 0.25.

Regarding RHGW, the enrichment ratio is at most 0.25.

Take KKLG: the enrichment ratio was at most 0.25.

Turning to NHMS, the enrichment ratio was at most 0.25.

As for QERF, the enrichment ratio is at most 0.25.

Take DVNS: the enrichment ratio was at most 0.25.

Regarding WKLL, the enrichment ratio was at most 0.25.

For WIMY, the enrichment ratio was at most 0.25.

Turning to GWMR, the enrichment ratio is at most 0.25.

As to KFNK, the enrichment ratio is at most 0.25.

Consider WKLC, for which the enrichment ratio was at most 0.25.

In the case of MFLE, the enrichment ratio is at most 0.25.

For LASN, the enrichment ratio was at most 0.25.

On to LANK, for which the enrichment ratio was at most 0.25.

As for NAFP, the enrichment ratio was at most 0.25.

With VSRQ, the enrichment ratio was at most 0.25.

For NENS, the enrichment ratio is at most 0.25.

For the variant YCVT, the enrichment ratio was at most 0.25.

In the case of HSNA, the enrichment ratio is at most 0.25.

RNDT: the enrichment ratio was at most 0.25.

Turning to PKEG, the enrichment ratio is at most 0.25.

On to MNNQ, for which the enrichment ratio was at most 0.25.

With SLDT, the enrichment ratio was at most 0.25.

Take SMEH: the enrichment ratio was at most 0.25.

Turning to EFPV, the enrichment ratio was at most 0.25.

For CPDM, the enrichment ratio is at most 0.25.

As to WNIP, the enrichment ratio is at most 0.25.

WQQG: the enrichment ratio is at most 0.25.

Turning to SQWL, the enrichment ratio is at most 0.25.

SARE: the enrichment ratio was at most 0.25.

For HFEY, the enrichment ratio was at most 0.25.

Consider NFGR, for which the enrichment ratio was at most 0.25.

For the variant QFSI, the enrichment ratio was at most 0.25.

On to TMQV, for which the enrichment ratio is 3.17.

Consider MPNN, for which the enrichment ratio was at most 0.25.

Turning to GSLW, the enrichment ratio was at most 0.25.

Consider PPNA, for which the enrichment ratio is at most 0.25.

For ICCL, the enrichment ratio was at most 0.25.

As for RLTF, the enrichment ratio is at most 0.25.

IEHN: the enrichment ratio is at most 0.25.

FDLT: the enrichment ratio is at most 0.25.

Regarding MCKT, the enrichment ratio is at most 0.25.

Consider GYLQ, for which the enrichment ratio is at most 0.25.

With HFHQ, the enrichment ratio was at most 0.25.

On to RYDH, for which the enrichment ratio was at most 0.25.

On to NDNT, for which the enrichment ratio was at most 0.25.

For QCYL, the enrichment ratio came to 3.96.

As for GSPH, the enrichment ratio is at most 0.25.

On to CTSL, for which the enrichment ratio was found to be 11.6.

For the variant KMPK, the enrichment ratio is at most 0.25.

With GTRF, the enrichment ratio is at most 0.25.

Turning to MLRM, the enrichment ratio was at most 0.25.

Regarding LGCH, the enrichment ratio was at most 0.25.

Regarding FDDR, the enrichment ratio was at most 0.25.

As to YRGR, the enrichment ratio was at most 0.25.

With DPVR, the enrichment ratio is at most 0.25.

YPPY: the enrichment ratio is at most 0.25.

In the case of EVCR, the enrichment ratio was at most 0.25.

Consider LPME, for which the enrichment ratio is at most 0.25.

Turning to DTEN, the enrichment ratio is at most 0.25.

As to VKLN, the enrichment ratio is at most 0.25.

Turning to NEVI, the enrichment ratio turned out to be 4.98.

ACIC: the enrichment ratio was found to be 9.45.

Consider FIIC, for which the enrichment ratio is at most 0.25.

On to HMYY, for which the enrichment ratio is at most 0.25.

In the case of QADF, the enrichment ratio was found to be 3.05.

For AHGR, the enrichment ratio is at most 0.25.

On to DGEM, for which the enrichment ratio is at most 0.25.

Consider NRYH, for which the enrichment ratio is at most 0.25.

With PVCS, the enrichment ratio was at most 0.25.

On to IVWD, for which the enrichment ratio was at most 0.25.

Consider IITD, for which the enrichment ratio was at most 0.25.

With RNST, the enrichment ratio was at most 0.25.

For WESN, the enrichment ratio was at most 0.25.

Regarding TNWG, the enrichment ratio was at most 0.25.

For DQAG, the enrichment ratio was at most 0.25.

In the case of IKCK, the enrichment ratio was at most 0.25.

Take GRVE: the enrichment ratio is at most 0.25.

Turning to DYLM, the enrichment ratio was at most 0.25.

For the variant ENVW, the enrichment ratio is at most 0.25.

As to HSHV, the enrichment ratio was at most 0.25.

YCAA: the enrichment ratio was at most 0.25.
